Experimental data published in the supplement of paper PMC12217912.
Some of the results follow. Sequences were assembled here from the parent chain. Inactive controls read about 0.05.

B1: TEV protease; numbered along this chain (parent)
chain: MGESLFKGPRDYNPISSSICHLTNESDGHTTSLYGIGFGPFIITNKHLFRRNNGTLVVQSLHGVFKVKDTTTLQQHLVDGRDMIIIRMPKDFPPFPQKLKFREPQREERICLVTTNFQTKSMSSMVSDTSCTFPSGDGIFWKHWIQTKDGQCGSPLVSTRDGFIVGIHSASNFTNTNNYFTSVPKNFMELLTNQEAQQWVSGWRLNADSVLWGGHKVFMVKPEEPFQPVKEATQL

Variants of: B1
Assay: raw area under fraction-flipped curve 0-4 h after induction (AUC4h, not background-subtracted), DNA-recorder readout of cleavage of the substrate (dimensionless); higher = more cleavage of the substrate by the protease variant
Settings: temperature: 34 °C; time window: 0-4 h after rhamnose induction
Method: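 In vivo DNA recorder in E. coli TOP10(DE3) ΔrhaA at 34 °C. Each TEVp single-site mutant (parent TEVp 0) is paired with a single-site variant of the 7-mer TEVs (canonical ENLYFQ|S). The substrate sits between flexible linkers in a Bxb1-sfGFP-TEVs-SsrA fusion, so cleavage stabilises Bxb1 and speeds flipping of a recombination array, read by NGS. The value is the raw area under the fraction-flipped curve over 0-4 h after rhamnose induction (AUC4h), with ≥20 reads per time point. It is not background-subtracted; inactive controls average about 0.047.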
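Further: Bxb1 expression induced with 0.2% (w/v) L-rhamnose at OD600 near 0.5, cultures sampled hourly, flipped fraction per protease–substrate barcode pair counted by paired-end Illumina sequencing.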

| Variant | area with substrate CNLYFQS | area with substrate DNLYFQS | area with substrate HNLYFQS | area with substrate INLYFQS | area with substrate KNLYFQS | area with substrate LNLYFQS | area with substrate MNLYFQS | area with substrate PNLYFQS | area with substrate SNLYFQS | area with substrate TNLYFQS | area with substrate WNLYFQS | area with substrate FNLYFQS | area with substrate GNLYFQS | area with substrate QNLYFQS | area with substrate NNLYFQS | area with substrate RNLYFQS | area with substrate VNLYFQS | area with substrate YNLYFQS |
| --- | --- | --- | --- | --- | --- | --- | --- | --- | --- | --- | --- | --- | --- | --- | --- | --- | --- | --- |
| I19V | 0.0562 | 0.0851 | 0.076 | 0.08 | 0.0604 | 0.0477 | 0.0734 | 0.0664 | 0.076 | 0.0661 | 0.0608 |  |  |  |  |  |  |  |
| I19Y | 0.0525 | 0.0417 | 0.0501 | 0.055 | 0.0375 | 0.0546 |  | 0.0543 | 0.0607 | 0.0533 | 0.0449 | 0.0414 | 0.0486 | 0.0508 |  |  |  |  |
| C20N | 0.0426 | 0.0548 | 0.0529 | 0.0399 | 0.0513 | 0.0476 | 0.0531 | 0.0565 | 0.0509 | 0.0463 | 0.0495 | 0.0444 | 0.0513 | 0.0562 | 0.0499 | 0.0677 |  |  |
| C20Q | 0.0442 | 0.0473 | 0.0422 | 0.0349 |  | 0.0463 | 0.0332 | 0.0488 | 0.0468 |  | 0.0514 |  | 0.0431 | 0.0449 | 0.0472 |  | 0.0447 | 0.0517 |
| H21A | 0.0675 | 0.073 | 0.0617 | 0.0502 | 0.0607 | 0.0566 | 0.0582 |  | 0.0721 | 0.0758 | 0.0428 | 0.068 | 0.0663 |  | 0.056 |  |  | 0.0689 |
| H21C | 0.0723 | 0.071 | 0.0713 | 0.0469 | 0.0675 | 0.0636 |  | 0.0631 |  | 0.074 | 0.0544 | 0.0436 |  |  | 0.0604 | 0.0517 |  | 0.0784 |
| H21Q | 0.0747 | 0.0506 | 0.0629 | 0.0599 | 0.064 | 0.0599 | 0.0663 | 0.0635 | 0.0677 | 0.0432 | 0.0513 | 0.0541 | 0.0672 |  |  |  | 0.0635 | 0.0542 |
| L22E | 0.0525 | 0.0404 | 0.0468 | 0.0483 | 0.0451 | 0.0422 | 0.0571 | 0.0481 | 0.0541 | 0.0403 | 0.0442 | 0.0379 | 0.0502 |  | 0.0407 | 0.0418 | 0.0454 | 0.0407 |
| L22I | 0.0835 | 0.0918 | 0.0479 | 0.0585 | 0.0621 | 0.0688 | 0.0811 | 0.0679 | 0.0879 | 0.0764 | 0.0632 | 0.0702 | 0.0506 | 0.075 | 0.0641 |  | 0.0765 |  |
| L22P | 0.0473 | 0.0643 | 0.0304 | 0.0328 | 0.044 | 0.0401 | 0.0457 | 0.036 | 0.0455 | 0.0458 | 0.0462 | 0.0451 | 0.0404 | 0.053 | 0.032 | 0.0433 |  | 0.0462 |
| T23C | 0.0656 | 0.0562 | 0.0622 |  | 0.0652 | 0.082 |  | 0.0728 | 0.0752 | 0.0673 | 0.0642 | 0.0582 |  | 0.0809 | 0.0504 |  | 0.0924 | 0.0482 |
| T23L | 0.0695 | 0.0848 | 0.0726 | 0.0636 | 0.066 | 0.0714 | 0.0829 | 0.0725 | 0.0608 | 0.0651 | 0.0671 | 0.0548 |  |  | 0.0607 |  | 0.0661 | 0.0756 |
| T23N | 0.0471 | 0.0596 | 0.0517 | 0.0564 | 0.0488 |  |  | 0.0633 | 0.074 | 0.0622 | 0.0577 | 0.06 | 0.0512 | 0.0628 | 0.0576 |  |  |  |
| T23Y | 0.0645 | 0.0898 | 0.0631 | 0.0739 | 0.0575 | 0.0739 | 0.061 | 0.0584 | 0.0616 | 0.0848 | 0.0486 | 0.0484 | 0.0763 | 0.0686 | 0.0624 | 0.0576 | 0.0621 | 0.0493 |
| N24E | 0.0683 | 0.0754 | 0.0634 | 0.0634 |  | 0.0616 | 0.0703 | 0.0722 | 0.0646 | 0.0766 | 0.0699 |  |  | 0.0477 | 0.0671 |  | 0.0659 |  |
| E25G | 0.0761 | 0.0714 | 0.0586 | 0.0437 | 0.0455 | 0.056 | 0.0665 | 0.0665 | 0.0572 | 0.0562 | 0.0488 | 0.0545 | 0.0635 | 0.0611 |  |  | 0.0478 | 0.0515 |
| E25N | 0.069 | 0.0874 | 0.0627 | 0.0647 | 0.0689 | 0.0627 |  | 0.0799 |  | 0.0564 | 0.0651 | 0.0625 |  | 0.0693 | 0.0676 |  | 0.0683 | 0.0577 |
| E25R | 0.061 | 0.0818 | 0.0689 | 0.0836 | 0.0543 | 0.0901 | 0.0653 | 0.0733 | 0.0592 | 0.0606 | 0.0526 |  |  |  | 0.0636 | 0.0687 | 0.0576 | 0.0581 |
| E25W | 0.0738 | 0.0721 | 0.0655 | 0.067 |  | 0.0608 | 0.0414 | 0.0766 |  | 0.0718 | 0.0491 |  |  |  | 0.0629 | 0.0622 |  |  |
| E25Y | 0.0714 | 0.0777 | 0.0805 | 0.0781 | 0.0653 | 0.0702 | 0.0704 | 0.0574 | 0.0631 | 0.0652 | 0.0616 | 0.0782 | 0.0677 | 0.0586 | 0.0756 | 0.0591 | 0.064 | 0.0566 |
| S26H | 0.0705 | 0.0777 | 0.0587 | 0.0446 |  | 0.06 |  |  |  | 0.0525 | 0.0599 |  | 0.0574 |  |  |  |  | 0.0621 |
| S26L | 0.0511 | 0.0464 | 0.065 | 0.0538 |  |  | 0.0555 | 0.0438 | 0.0656 | 0.0708 | 0.058 |  |  | 0.0509 |  | 0.0083 |  | 0.0522 |
| S26N | 0.0648 | 0.0681 | 0.0614 | 0.0436 |  | 0.0552 | 0.0549 |  | 0.0711 |  | 0.0552 | 0.0613 | 0.0451 | 0.0722 | 0.0342 | 0.0487 |  |  |
| S26P | 0.0627 | 0.067 | 0.0498 | 0.0458 | 0.057 | 0.0512 | 0.0597 | 0.057 | 0.0553 | 0.0544 | 0.0552 | 0.058 | 0.053 |  |  | 0.047 | 0.0447 | 0.0482 |
